Data taken from PubChem BioAssay AID686979 (National Center for Advancing Translational Sciences (NCATS), 2013).
The campaign covered roughly 420,000 compounds. About 50,000 (12%) were called active. This list was built around the results that the source calls inconclusive (neither active nor inactive); the mix of calls is not that of the screen. The call rests on the fitted dose curve; in most records, active means well fitted inhibition curve with a large enough effect; inconclusive means small, poorly fitted or top-dose-only effect; inactive means flat fitted curve, though single readings scatter. Potencies of inconclusive entries are left out as doubtful fits.

Experiment: qHTS for Inhibitors of human tyrosyl-DNA phosphodiesterase 1 (TDP1): qHTS in cells in presence of CPT; further: nearly all actives have a fitted effect of over 55% in size
Details: chicken DT40 Tdp1-/-;hTDP1 cells + 20 nM CPT, ATP luminescence, 48 h; activity change, negative = growth inhibition: at 46.2 µM (top of the series)
In short: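 Chicken DT40 Tdp1-/- cells complemented with human TDP1, 400 cells/well, exposed to compounds plus 20 nM camptothecin for at least 48 h at 37 C; viability read as ATP content by CellTiter-Glo luminescence.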
On the % scale 0 is the no-effect control and ±100 the full control effect; potency means the concentration at half of the fitted maximal effect; tags describe the fitted curve by direction and shape.

SMILES | Potency | activity change, negative = growth inhibition
Cc1nn(C)c(Oc2ccccc2)c1CCNS(=O)(=O)c1ccccc1 | inconclusive [inhibitor, single point] | 
CCN(CCO)c1ccc(N=Nc2cc(C)[nH]n2)cc1 |  | inactive: -29.7%
O=C1Nc2ccccc2N(C(=O)c2ccc(-c3ccccc3)cc2)C1c1nc2ccccc2[nH]1 (configuration not stated) | inconclusive [inhibitor, single point] | 
C/C(=N\NC(=O)c1cc(C2CC2)nc2ccccc12)c1ccc(O)cc1O | active: 6.51 µM | 
COc1ccc(-c2cccc([C@H]3[C@@H]4C=CCC[C@@]4(C)C(=O)N3Cc3ccccc3)c2)cc1 | active: 23.1 µM | 
O=[N+]([O-])c1ccc2[nH]cc(S(=O)(=O)N3CCN(c4cccc(Cl)c4)CC3)c2c1 | inconclusive [inhibitor, single point] | 
N#Cc1nc(N)nc(N2CCCCC2)n1 | inconclusive [inhibitor, partial curve] | 
CCCN(CCC)CC(O)Cn1cc(/C=C/C(=O)c2cccs2)c2ccccc21 (configuration not stated) | active: 18.4 µM | 
CCCN(CC(=O)Nc1ccccc1C)C(=O)c1ccc(S(=O)(=O)N2CCCCCC2)cc1 |  | inactive: 6.02%
COc1ccc2c(c1)OC[C@H]1[C@H]2N2C(=O)c3cc(F)ccc3NC(=O)[C@@]2(C)[C@H]1c1ccccc1 | inconclusive [inhibitor, single point] | 
CCNC(=S)NNC(=O)c1cccc(Br)c1 | inconclusive [inhibitor, single point] | 
CNC(=O)/C=C1\NC(C)(C)Cc2c1ccc1ccccc21 | active: 20.6 µM | 
COc1cc(/C=C2/NC(=O)N(Cc3ccccc3F)C2=O)cc(OC)c1OC | inconclusive [inhibitor, single point] | 
CCOC(=O)CN1C(=O)C(C)(C)Oc2ccc(C(=O)Nc3ccccc3)cc21 | inconclusive [inhibitor, partial curve] | 
Nc1nc(Cl)nc2c1ncn2C1CCC(CO)O1 (configuration not stated) | active: 1.03 µM | 
Cc1[nH][nH]c(=O)c1C(c1ccc(-c2ccc(Cl)cc2)o1)c1c(C)[nH][nH]c1=O | inconclusive [inhibitor, single point] | 
O=C(O)CCC(=O)Nc1ccc(OCC2CCCO2)cc1 (configuration not stated) |  | inactive: 19.8%
CCCCOc1ccc(C(=O)NCC(=O)NC2CCC(C)CC2)cc1 (configuration not stated) |  | inactive: 2.57%
COc1cc(-c2noc(-c3ccc(NCCc4ccccc4)c([N+](=O)[O-])c3)n2)cc(OC)c1OC | active: 5.17 µM | 
CCOC(=O)C1=NN(c2ccc(Cl)cc2)C(=O)C1 | inconclusive [inhibitor, single point] | 
O=C(N/N=C/c1cccc2ccccc12)c1n[nH]c2c1CCCC2 | active: 4.61 µM | 
COC(=O)c1ccccc1NCc1cc(=O)oc2cc(O)c(O)cc12 | inconclusive [inhibitor, single point] | 
CC1(C)Cc2c(C#N)c(NCc3ccco3)nc(-c3ccco3)c2CO1 | inconclusive [inhibitor, single point] | 

SMILES | Potency | activity change, negative = growth inhibition
O=C1CCC(c2ccccc2)N1C(=O)c1cccnc1 (configuration not stated) |  | inactive: -1.38%
COc1ccc(-c2cc(C(F)(F)F)nc(N3CCN(Cc4ccccc4)CC3)n2)cc1OC | inconclusive [inhibitor, partial curve] | 
CC(=O)Nc1ccc(S(=O)(=O)Nc2cc(C)c(-n3nc4ccccc4n3)cc2O)cc1 | inconclusive [inhibitor, partial curve] | 
Cc1cc(OCc2cc(C(=O)NC(C)c3cnn(C)c3)no2)cc(C)c1Cl (configuration not stated) | active: 18.4 µM | 
CC(/C=N/Nc1ccc2nncn2n1)=C\c1ccccc1 | inconclusive [inhibitor, single point] | 
Fc1ccc2c(c1)Sc1ccc(Cl)cc1CC2N1CCN(CCC2OCCO2)CC1 (configuration not stated) | inconclusive [inhibitor, single point] | 
COc1ccc(Cl)cc1NC(=S)NCCc1ccc(F)cc1 | inconclusive [inhibitor, single point] | 
CCc1nc(NCCc2ccccn2)c2nnn(Cc3ccccc3F)c2n1 |  | inactive: -21.6%
COc1cc2c(cc1NC(=O)c1cccc(F)c1)CCCC2 | inconclusive [inhibitor, single point] | 
CCOC(=O)c1c(C)[nH]c(C)c1C(=O)COC(=O)/C=C/c1cccc([N+](=O)[O-])c1 |  | inactive: -20.3%
CC(C)COc1ccc(C(=O)Nc2cc(S(=O)(=O)N3CCOCC3)ccc2N2CCCC2)cc1 | active: 16.4 µM | 
COCC(=O)N1CCc2cc(OC)c(OC)cc2C1COc1ccc2c(C)cc(=O)oc2c1 (configuration not stated) |  | inactive: -27.1%
CC(C)C[C@@H](CN1CCC[C@H]1CN1C(=O)C(=O)NC[C@@H]1Cc1ccccc1)N1C[C@H](Cc2ccccc2)N(CC2CCCCC2)C(=O)C1=O | inconclusive [inhibitor, single point] | 
CCCCOCCCNC(=O)C[C@@H]1C[C@@]2(C(=O)OCC)CCCC=C2N(CCc2ccc(OC)c(OC)c2)C1=O | active: 20.6 µM | 
O=C(NCc1nc2ccccc2[nH]1)C1=C[C@H](c2ccc(C(F)(F)F)cc2)C[C@H](OCCCCO)O1 | inconclusive [inhibitor, single point] | 
CN1CCN(S(=O)(=O)c2cccc(C(=O)Nc3cc(C(F)(F)F)ccc3N3CCCC3)c2)CC1 | inconclusive [inhibitor, single point] | 
COc1ccc(-c2cc(C(F)F)n3ncc(C(=O)N4CCCCC4)c3n2)cc1 | inconclusive [inhibitor, single point] | 
O=C(NCc1ccccc1CN1CCOCC1)c1ccc(-n2cccn2)cc1 | inconclusive [inhibitor, single point] | 
CCCN1CCN(C(=O)C2CCN(S(=O)(=O)c3ccc4c(c3)NC(=O)C(C)S4)CC2)CC1 (configuration not stated) | inconclusive [inhibitor, single point] | 
CC(C)(C)OC(=O)[C@H](NC(=O)OCc1ccccc1)c1ccccc1 | inconclusive [inhibitor, single point] | 
CC(NCC(=O)Nc1ccccc1C(=O)NC1CC1)c1ccc(F)cc1F (configuration not stated) | inconclusive [inhibitor, single point] | 
CC(C)CN(CCNC(=O)CN1C(=O)COc2ccc(S(=O)(=O)N3CCC(C)CC3)cc21)CC(C)C | inconclusive [inhibitor, single point] | 
CCc1ccccc1N1CC(c2nc3ccccc3n2Cc2cccc(C)c2)CC1=O (configuration not stated) | active: 10.3 µM | 

SMILES | Potency | activity change, negative = growth inhibition
Cc1ccc(S(=O)(=O)NNC(=S)Nc2c(Cl)cccc2Cl)cc1 |  | inactive: -0.861%
COc1cccc(C2c3[nH]c4ccccc4c3C[C@H]3C(=O)N(C4CCN(Cc5ccccc5)CC4)CC(=O)N23)c1 (some centres not stated) | active: 23.1 µM | 
COCCCNCCCOc1ccc(Cl)cc1C(C)(C)C | active: 11.6 µM | 
CCOc1ccc(/C(O)=C2/C(=O)C(=O)N(CCCN3CCOCC3)C2c2ccc(F)cc2)cc1C (configuration not stated) |  | inactive: -3.9%
COc1cccc(CNC(=O)Cn2ccc3cc(S(=O)(=O)N4CCCC4)ccc32)c1 |  | inconclusive: -30.9% [inhibitor]
Cc1ccc(NC(=O)c2ncn(CCCNCC3CCCCC3)n2)cc1C | inconclusive [inhibitor, single point] | 
Cc1ccccc1-c1nccc(NCc2cccs2)n1 | inconclusive [inhibitor, single point] | 
CCOc1ccccc1N1CC(c2nc3ccccc3n2CCCOc2ccccc2OC)CC1=O (configuration not stated) | inconclusive [inhibitor, single point] | 
COc1ccc(CNc2ccc(C)c(C)c2)c(OC)c1OC | inconclusive [inhibitor, single point] | 
CCOc1ccc(S(=O)(=O)NCCc2sc(-c3ccc(C)cc3)nc2C)cc1 | inconclusive [inhibitor, single point] | 
O=C(Cc1cccs1)Nc1nnc(SCc2ccc(F)cc2)s1 | inconclusive [inhibitor, single point] | 
O=C(Cn1c(=O)n(CC2CCCO2)c(=O)c2ccccc21)c1ccc(Cl)c(Cl)c1 (configuration not stated) | inconclusive [inhibitor, single point] | 
Cc1cnc(Nc2nc3ccccc3o2)nc1C(=O)Nc1cccc(C(F)(F)F)c1 | active: 23.1 µM | 
O=C(CCc1ccccc1)n1nc(-c2ccccc2)nc1NCc1ccco1 |  | inactive: -29.9%
Fc1ccccc1COc1ccccc1/C=N/Nc1nc(N2CCCC2)nc(N2CCCC2)n1 | inconclusive [inhibitor, single point] | 
Cc1sc2nc(CSCC(=O)Nc3ccccc3C#N)[nH]c(=O)c2c1C | inconclusive [inhibitor, single point] | 
Cc1ccc(NCC(=O)Nc2ccc(F)c(Cl)c2)cc1S(=O)(=O)N1CCOCC1 | inconclusive [inhibitor, single point] | 
COc1ccc(-c2nc(CS(=O)CC(=O)NC3CCCC3)c(C)o2)cc1 (configuration not stated) | inconclusive [inhibitor, single point] | 
COc1cc(NC(=O)Cn2c(=O)n(C(C)C)c(=O)c3oc4ccccc4c32)cc(OC)c1 | inconclusive [inhibitor, partial curve] | 
CC1CCc2nn(CC(=O)Nc3cccc(C(F)(F)F)c3)c(=O)cc2C1 (configuration not stated) | inconclusive [inhibitor, single point] | 
COc1cc(OC)c(NS(=O)(=O)c2cc(C(=O)OC(C)C(=O)NC3CC3)c(Cl)cc2Cl)cc1Cl (configuration not stated) | active: 18.4 µM | 
